Measurements taken from the supplement of paper PMC8728848.
This is one part of the list.

Assays:
Test in all cases: glycan array binding signal (z-score within array); higher = stronger binding
Conditions in all cases: glycan notation: IUPAC condensed, linker removed
[1] = molecular target: Gal(b1-4)GlcNAc(b1-6)Gal(b1-4)GlcNAc
Outline: (§1)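 From the Consortium for Functional Glycomics database, 3228 arrays were curated, keeping only those whose protein sequence was available. Binding is given as a within-array Z-score averaged across arrays sharing a protein sequence and across linkers. Negative Z-scores can be read as non-binding.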

[2] = molecular target: Gal(b1-4)GlcNAc(b1-6)GalNAc
Outline: as §1

[3] = molecular target: Gal(b1-4)GlcNAc(b1-6)[Gal(b1-3)]GalNAc
Outline: as §1

[4] = molecular target: Gal(b1-4)GlcNAc(b1-6)[Gal(b1-4)GlcNAc(b1-3)]GalNAc
Outline: as §1

Gal(b1-4)GlcNAc6P = molecular target: Gal(b1-4)GlcNAc6P
Outline: as §1

Gal(b1-6)Gal = molecular target: Gal(b1-6)Gal
Outline: as §1

Gal3S(b1-3)GalNAc = molecular target: Gal3S(b1-3)GalNAc
Outline: as §1

Gal3S(b1-3)GlcNAc = molecular target: Gal3S(b1-3)GlcNAc
Outline: as §1

[5] = molecular target: Gal3S(b1-3)[Fuc(a1-4)]GlcNAc
Outline: as §1

Gal3S(b1-4)Glc = molecular target: Gal3S(b1-4)Glc
Outline: as §1

Gal3S(b1-4)Glc6S = molecular target: Gal3S(b1-4)Glc6S
Outline: as §1

Gal3S(b1-4)GlcNAc = molecular target: Gal3S(b1-4)GlcNAc
Outline: as §1

[6] = molecular target: Gal3S(b1-4)[Fuc(a1-3)]Glc6S
Outline: as §1

[7] = molecular target: Gal3S(b1-4)[Fuc(a1-3)]GlcNAc
Outline: as §1

[8] = molecular target: Gal3S(b1-4)[Fuc(a1-3)]GlcNAc6S
Outline: as §1

Gal3S4S(b1-4)GlcNAc = molecular target: Gal3S4S(b1-4)GlcNAc
Outline: as §1

Gal3S6S(b1-4)GlcNAc = molecular target: Gal3S6S(b1-4)GlcNAc
Outline: as §1

Gal3S6S(b1-4)GlcNAc6S = molecular target: Gal3S6S(b1-4)GlcNAc6S
Outline: as §1

Gal4S(b1-4)GlcNAc = molecular target: Gal4S(b1-4)GlcNAc
Outline: as §1

Gal4S6S(b1-4)GlcNAc = molecular target: Gal4S6S(b1-4)GlcNAc
Outline: as §1

Gal6P(b1-4)GlcNAc = molecular target: Gal6P(b1-4)GlcNAc
Outline: as §1

Gal6S(b1-3)GlcNAc = molecular target: Gal6S(b1-3)GlcNAc
Outline: as §1

Gal6S(b1-3)GlcNAc6S = molecular target: Gal6S(b1-3)GlcNAc6S
Outline: as §1

Gal6S(b1-4)Glc = molecular target: Gal6S(b1-4)Glc
Outline: as §1

Gal6S(b1-4)Glc6S = molecular target: Gal6S(b1-4)Glc6S
Outline: as §1

Gal6S(b1-4)GlcNAc = molecular target: Gal6S(b1-4)GlcNAc
Outline: as §1

Gal6S(b1-4)GlcNAc6S = molecular target: Gal6S(b1-4)GlcNAc6S
Outline: as §1

GalNAc(a1-3)Gal = molecular target: GalNAc(a1-3)Gal
Outline: as §1

GalNAc(a1-3)GalNAc = molecular target: GalNAc(a1-3)GalNAc
Outline: as §1

[9] = molecular target: GalNAc(a1-3)GalNAc(b1-3)Gal(a1-4)Gal(b1-4)Glc
Outline: as §1

[10] = molecular target: GalNAc(a1-3)GalNAc(b1-3)Gal(a1-4)Gal(b1-4)GlcNAc
Outline: as §1

GalNAc(b1-3)Gal = molecular target: GalNAc(b1-3)Gal
Outline: as §1

[11] = molecular target: GalNAc(b1-3)Gal(a1-4)Gal(b1-4)GlcNAc
Outline: as §1

[12] = molecular target: GalNAc(b1-3)Gal(a1-4)Gal(b1-4)GlcNAc(b1-3)Gal(b1-4)Glc
Outline: as §1

[13] = molecular target: GalNAc(b1-3)Gal(a1-6)Gal(b1-4)Glc
Outline: as §1

GalNAc(b1-3)GalNAc = molecular target: GalNAc(b1-3)GalNAc
Outline: as §1

GalNAc(b1-3)GlcNAc = molecular target: GalNAc(b1-3)GlcNAc
Outline: as §1

GalNAc(b1-4)Gal(b1-4)Glc = molecular target: GalNAc(b1-4)Gal(b1-4)Glc
Outline: as §1

B1: DC-ASGPR-short (Homo sapiens) (protein)
chain: MTRTYENFQYLENKVKVQGFKNGPLPLQSLLQRLRSGPCHLLLSLGLGLLLLVIICVVGFQNSKFQRDLVTLRTDFSNFTSNTVAEIQALTSQGSSLEETIASLKAEVEGFKQERQAVHSEMLLRVQQLVQDLKKLTCQVATLNNNASTEGTCCPVNWVEHQDSCYWFSHSGMSWAEAEKYCQLKNAHLVVINSREEQNFVQKYLGSAYTWMGLSDPEGAWKWVDGTDYATGFQNWKPGQPDDWQGHGLGGGEDCAHFHPDGRWNDDVCQRPYHWVCEAGLGQTSQESH
**Q.** B1 was tested. Which “glycan array binding signal (z-score)” value [1] did it give?
**A.** -0.284

**Q.** What about the “glycan array binding signal (z-score)” value [2] of the same binder?
**A.** 3.52

**Q.** What about the “glycan array binding signal (z-score)” value [3] of the same binder?
**A.** 0.112

**Q.** And the “glycan array binding signal (z-score)” value [4]?
**A.** -0.261

**Q.** And the “glycan array binding signal (z-score)” value (Gal(b1-4)GlcNAc6P)?
**A.** -0.284

**Q.** What about the “glycan array binding signal (z-score)” value (Gal(b1-6)Gal) of the same binder?
**A.** -0.275

**Q.** And the “glycan array binding signal (z-score)” value (Gal3S(b1-3)GalNAc)?
**A.** -0.265

**Q.** What about the “glycan array binding signal (z-score)” value (Gal3S(b1-3)GlcNAc) of the same binder?
**A.** -0.745

**Q.** And the “glycan array binding signal (z-score)” value [5]?
**A.** -0.259

**Q.** What about the “glycan array binding signal (z-score)” value (Gal3S(b1-4)Glc) of the same binder?
**A.** -0.269

**Q.** What about the “glycan array binding signal (z-score)” value (Gal3S(b1-4)Glc6S) of the same binder?
**A.** -0.268

**Q.** And the “glycan array binding signal (z-score)” value (Gal3S(b1-4)GlcNAc)?
**A.** -0.271

**Q.** And the “glycan array binding signal (z-score)” value [6]?
**A.** -0.258

**Q.** And the “glycan array binding signal (z-score)” value [7]?
**A.** -0.267

**Q.** And the “glycan array binding signal (z-score)” value [8]?
**A.** -0.26

**Q.** What about the “glycan array binding signal (z-score)” value (Gal3S4S(b1-4)GlcNAc) of the same binder?
**A.** -0.279

**Q.** And the “glycan array binding signal (z-score)” value (Gal3S6S(b1-4)GlcNAc)?
**A.** -0.266

**Q.** And the “glycan array binding signal (z-score)” value (Gal3S6S(b1-4)GlcNAc6S)?
**A.** -0.276

**Q.** And the “glycan array binding signal (z-score)” value (Gal4S(b1-4)GlcNAc)?
**A.** -0.289

**Q.** And the “glycan array binding signal (z-score)” value (Gal4S6S(b1-4)GlcNAc)?
**A.** -0.27

**Q.** And the “glycan array binding signal (z-score)” value (Gal6P(b1-4)GlcNAc)?
**A.** -0.27

**Q.** What about the “glycan array binding signal (z-score)” value (Gal6S(b1-3)GlcNAc) of the same binder?
**A.** -0.237

**Q.** What about the “glycan array binding signal (z-score)” value (Gal6S(b1-3)GlcNAc6S) of the same binder?
**A.** -0.289

**Q.** What about the “glycan array binding signal (z-score)” value (Gal6S(b1-4)Glc) of the same binder?
**A.** -0.271

**Q.** And the “glycan array binding signal (z-score)” value (Gal6S(b1-4)Glc6S)?
**A.** -0.268

**Q.** What about the “glycan array binding signal (z-score)” value (Gal6S(b1-4)GlcNAc) of the same binder?
**A.** -0.288

**Q.** What about the “glycan array binding signal (z-score)” value (Gal6S(b1-4)GlcNAc6S) of the same binder?
**A.** -0.279

**Q.** What about the “glycan array binding signal (z-score)” value (GalNAc(a1-3)Gal) of the same binder?
**A.** 2.02

**Q.** What about the “glycan array binding signal (z-score)” value (GalNAc(a1-3)GalNAc) of the same binder?
**A.** 0.823

**Q.** And the “glycan array binding signal (z-score)” value [9]?
**A.** 0.695

**Q.** What about the “glycan array binding signal (z-score)” value [10] of the same binder?
**A.** 1.42

**Q.** And the “glycan array binding signal (z-score)” value (GalNAc(b1-3)Gal)?
**A.** 0.55

**Q.** And the “glycan array binding signal (z-score)” value [11]?
**A.** 6.36

**Q.** And the “glycan array binding signal (z-score)” value [12]?
**A.** 1.75

**Q.** And the “glycan array binding signal (z-score)” value [13]?
**A.** 1.25

**Q.** And the “glycan array binding signal (z-score)” value (GalNAc(b1-3)GalNAc)?
**A.** 1.45

**Q.** What about the “glycan array binding signal (z-score)” value (GalNAc(b1-3)GlcNAc) of the same binder?
**A.** 2.85

**Q.** And the “glycan array binding signal (z-score)” value (GalNAc(b1-4)Gal(b1-4)Glc)?
**A.** -0.239
